The supplement of paper PMC4604168 (melanoma cell lines)
The other results are listed elsewhere or left out. Repeats are few or missing, and single values can be far off.

Key:
Test in all cases: cell count relative to DMSO control; melanoma cells; higher = more viable cells
Details in all cases: library dose: standard library concentration; 72 h
501Mel = test system: 501Mel
A101D = test system: A101D
A2058 = test system: A2058
A375 = test system: A375
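Further: cells treated in 1,536-well plates, then fixed and DAPI-stained, with nuclei counted from automated high-throughput microscope images.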

Compound | cell count (501Mel) | cell count (A101D) | cell count (A2058) | cell count (A375)
Cc1cc(Nc2cc(N3CCN(C)CC3)nc(Sc3ccc(NC(=O)C4CC4)cc3)n2)n[nH]1 [Tozasertib] + O=C(O)C(=O)Nc1sc2c(c1C(=O)O)CCNC2 [TCS401] (first compound 0.03 µM, partner dose 8.33333 µM) | 90.3% | 94.1% | 86.4% | 187%
N#CC[C@H](C1CCCC1)n1cc(-c2ncnc3[nH]ccc23)cn1 [ruxolitinib] + CC1(C)CCC(c2ccc(Cl)cc2)=C(CN2CCN(c3ccc(C(=O)NS(=O)(=O)c4ccc(N[C@H](CCN5CCOCC5)CSc5ccccc5)c(S(=O)(=O)C(F)(F)F)c4)cc3)CC2)C1 [ABT263] (first compound 5 µM, partner dose 2 µM) |  | 57.1% | 80.5% | 100%
Cc1cc(Nc2cc(N3CCN(C)CC3)nc(Sc3ccc(NC(=O)C4CC4)cc3)n2)n[nH]1 [Tozasertib] + Oc1cc(-c2nc(-c3ccccc3)[nH]c2-c2ccncc2)ccc1Cl [L779450] (first compound 0.03 µM, partner dose 1 µM) | 64.9% | 64% | 85% | 69.7%
Cc1cc(Nc2cc(N3CCN(C)CC3)nc(Sc3ccc(NC(=O)C4CC4)cc3)n2)n[nH]1 [Tozasertib] + NC(=O)Nc1cc(-c2cccc(F)c2)sc1C(=O)N[C@H]1CCCNC1 [AZD7762] (first compound 0.03 µM, partner dose 0.1 µM) |  | 62% | 72.8% | 46.4%
Cc1cc(Nc2cc(N3CCN(C)CC3)nc(Sc3ccc(NC(=O)C4CC4)cc3)n2)n[nH]1 [Tozasertib] + CC(C)C[C@H](NC(=O)[C@H](Cc1ccccc1)NC(=O)c1cnccn1)B(O)O [Bortezomib] (first compound 0.03 µM, partner dose 0.005 µM) |  | 9.27% | 9.1% | 84.3%
Cc1cc(Nc2cc(N3CCN(C)CC3)nc(Sc3ccc(NC(=O)C4CC4)cc3)n2)n[nH]1 [Tozasertib] + CNC(=O)c1cc(Oc2ccc(NC(=O)Nc3ccc(Cl)c(C(F)(F)F)c3)cc2)ccn1 [sorafenib] (first compound 0.03 µM, partner dose 2 µM) |  | 86.2% | 96.1% | 122%
Cc1cc(Nc2cc(N3CCN(C)CC3)nc(Sc3ccc(NC(=O)C4CC4)cc3)n2)n[nH]1 [Tozasertib] + O=C(Nc1ccccc1)c1cc([N+](=O)[O-])ccc1Cl [GW9662] (first compound 0.03 µM, partner dose 10 µM) | 114% | 70.2% | 86.5% | 122%
Cc1cc(Nc2cc(N3CCN(C)CC3)nc(Sc3ccc(NC(=O)C4CC4)cc3)n2)n[nH]1 [Tozasertib] + Cc1nc(Nc2ncc(C(=O)Nc3c(C)cccc3Cl)s2)cc(N2CCN(CCO)CC2)n1 [dasatanib] (first compound 0.03 µM, partner dose 0.02 µM) |  | 68.2% | 50.5% | 48.7%
CC[C@]1(O)C[C@H]2CN(CCc3c([nH]c4ccccc34)[C@@](C(=O)OC)(c3cc4c(cc3OC)N(C=O)[C@H]3[C@@](O)(C(=O)OC)[C@H](OC(C)=O)[C@]5(CC)C=CCN6CC[C@]43[C@@H]65)C2)C1 [vincristine] + Cn1cc(/C=C2\C(=O)Nc3cccnc32)c2ccccc21 [GW441756] (first compound 0.0005 µM, partner dose 2 µM) | 67.2% | 51.6% | 27.7% | 121%
CC[C@]1(O)C[C@H]2CN(CCc3c([nH]c4ccccc34)[C@@](C(=O)OC)(c3cc4c(cc3OC)N(C=O)[C@H]3[C@@](O)(C(=O)OC)[C@H](OC(C)=O)[C@]5(CC)C=CCN6CC[C@]43[C@@H]65)C2)C1 [vincristine] + CO[C@H]1C[C@@H]2CC[C@@H](C)[C@@](O)(O2)C(=O)C(=O)N2CCCC[C@H]2C(=O)O[C@H]([C@H](C)C[C@@H]2CC[C@@H](OCCO)[C@H](OC)C2)CC(=O)[C@H](C)/C=C(\C)[C@@H](O)[C@@H](OC)C(=O)[C@H](C)C[C@H](C)/C=C/C=C/C=C/1C [everolimus] (first compound 0.0005 µM, partner dose 0.1 µM) |  | 62.9% | 53.4% | 96.7%
Cc1cc(Nc2cc(N3CCN(C)CC3)nc(Sc3ccc(NC(=O)C4CC4)cc3)n2)n[nH]1 [Tozasertib] + C=C(c1ccc(C(=O)O)cc1)c1cc2c(cc1C)C(C)(C)CCC2(C)C [Bexarotene] (first compound 0.03 µM, partner dose 10 µM) |  | 90.5% | 98.7% | 90.7%
N#CC[C@H](C1CCCC1)n1cc(-c2ncnc3[nH]ccc23)cn1 [ruxolitinib] + Oc1nc(-c2ccc(C(F)(F)F)cc2)nc2c1CSCC2 [XAV939] (first compound 5 µM, partner dose 10 µM) | 87.4% | 98.7% | 63.4% | 115%
Cc1cc(Nc2cc(N3CCN(C)CC3)nc(Sc3ccc(NC(=O)C4CC4)cc3)n2)n[nH]1 [Tozasertib] + Cn1c(Nc2ccc(C(F)(F)F)cc2)nc2cc(Oc3ccnc(-c4ncc(C(F)(F)F)[nH]4)c3)ccc21 [CHIR265] (first compound 0.03 µM, partner dose 0.4 µM) |  | 62.4% | 40.5% | 66.2%
Cc1cc(Nc2cc(N3CCN(C)CC3)nc(Sc3ccc(NC(=O)C4CC4)cc3)n2)n[nH]1 [Tozasertib] + O=c1[nH]nc(Sc2ncc([N+](=O)[O-])s2)n1-c1ccc2c(c1)OCCO2 [BI78D3] (first compound 0.03 µM, partner dose 1 µM) |  | 82% | 107% | 104%
N#CC[C@H](C1CCCC1)n1cc(-c2ncnc3[nH]ccc23)cn1 [ruxolitinib] + Cn1c(=O)n(-c2ccc(C(C)(C)C#N)cc2)c2c3cc(-c4cnc5ccccc5c4)ccc3ncc21 [NVP-BEZ235] (first compound 5 µM, partner dose 0.02 µM) |  | 64.4% | 44.2% | 106%
CC[C@]1(O)C[C@H]2CN(CCc3c([nH]c4ccccc34)[C@@](C(=O)OC)(c3cc4c(cc3OC)N(C=O)[C@H]3[C@@](O)(C(=O)OC)[C@H](OC(C)=O)[C@]5(CC)C=CCN6CC[C@]43[C@@H]65)C2)C1 [vincristine] + O=C(O)c1ccc2c(c1)nc(Nc1cccc(Cl)c1)c1ccncc12 [CX4945] (first compound 0.0005 µM, partner dose 2 µM) |  | 72.6% | 85.9% | 78.7%
N#CC[C@H](C1CCCC1)n1cc(-c2ncnc3[nH]ccc23)cn1 [ruxolitinib] + Cn1nnc2c(C(N)=O)ncn2c1=O [temozolomide] (first compound 5 µM, partner dose 10 µM) |  | 101% | 31.6% | 128%
N#CC[C@H](C1CCCC1)n1cc(-c2ncnc3[nH]ccc23)cn1 [ruxolitinib] + Cc1nc(Nc2ncc(C(=O)Nc3c(C)cccc3Cl)s2)cc(N2CCN(CCO)CC2)n1 [dasatanib] (first compound 5 µM, partner dose 0.02 µM) |  | 99% | 41.1% | 77.4%
CC[C@]1(O)C[C@H]2CN(CCc3c([nH]c4ccccc34)[C@@](C(=O)OC)(c3cc4c(cc3OC)N(C=O)[C@H]3[C@@](O)(C(=O)OC)[C@H](OC(C)=O)[C@]5(CC)C=CCN6CC[C@]43[C@@H]65)C2)C1 [vincristine] + CNC(=O)c1cc(Oc2ccc(NC(=O)Nc3ccc(Cl)c(C(F)(F)F)c3)cc2)ccn1 [sorafenib] (first compound 0.0005 µM, partner dose 2 µM) |  | 39.5% | 10.9% | 89.6%
Cc1cc(Nc2cc(N3CCN(C)CC3)nc(Sc3ccc(NC(=O)C4CC4)cc3)n2)n[nH]1 [Tozasertib] + COc1cc(Nc2ncc(F)c(Nc3ccc4c(n3)NC(=O)C(C)(C)O4)n2)cc(OC)c1OC [Tamatinib] (first compound 0.03 µM, partner dose 2 µM) |  | 24.1% | 75.6% | 76.8%
Cc1cc(Nc2cc(N3CCN(C)CC3)nc(Sc3ccc(NC(=O)C4CC4)cc3)n2)n[nH]1 [Tozasertib] + NC(=O)c1ccc(N(C(N)=O)c2c(F)cccc2F)nc1-c1ccc(F)cc1F [VX702] (first compound 0.03 µM, partner dose 2 µM) |  | 90.5% | 72.8% | 100%
CC[C@]1(O)C[C@H]2CN(CCc3c([nH]c4ccccc34)[C@@](C(=O)OC)(c3cc4c(cc3OC)N(C=O)[C@H]3[C@@](O)(C(=O)OC)[C@H](OC(C)=O)[C@]5(CC)C=CCN6CC[C@]43[C@@H]65)C2)C1 [vincristine] + Cn1cnc2c(F)c(Nc3ccc(Br)cc3Cl)c(C(=O)NOCCO)cc21 [selumetinib] (first compound 0.0005 µM, partner dose 0.075 µM) |  | 67.9% | 101% | 80.8%
CC[C@]1(O)C[C@H]2CN(CCc3c([nH]c4ccccc34)[C@@](C(=O)OC)(c3cc4c(cc3OC)N(C=O)[C@H]3[C@@](O)(C(=O)OC)[C@H](OC(C)=O)[C@]5(CC)C=CCN6CC[C@]43[C@@H]65)C2)C1 [vincristine] + O=C(O)[C@@H]1[O][Sb](=[O])([O][Sb]2(=[O])[O][C@H]([C@H](O)CO)[C@H](O)[C@H](C(=O)O)[O]2)[O][C@H]([C@H](O)CO)[C@@H]1O [stibogluconate] (first compound 0.0005 µM, partner dose 10 µM) |  | 93.8% | 63% | 121%
Cc1cc(Nc2cc(N3CCN(C)CC3)nc(Sc3ccc(NC(=O)C4CC4)cc3)n2)n[nH]1 [Tozasertib] + C[C@@H](Oc1cc(-c2cnn(C3CCNCC3)c2)cnc1N)c1c(Cl)ccc(F)c1Cl [Crizotinib] (first compound 0.03 µM, partner dose 1 µM) |  | 93% | 36.8% | 94.6%
CC[C@]1(O)C[C@H]2CN(CCc3c([nH]c4ccccc34)[C@@](C(=O)OC)(c3cc4c(cc3OC)N(C=O)[C@H]3[C@@](O)(C(=O)OC)[C@H](OC(C)=O)[C@]5(CC)C=CCN6CC[C@]43[C@@H]65)C2)C1 [vincristine] + NC1(c2ccc(-c3nc4ccn5c(=O)[nH]nc5c4cc3-c3ccccc3)cc2)CCC1 [MK2206] (first compound 0.0005 µM, partner dose 2 µM) |  | 29% | 12% | 65.5%
